Source: PubChem BioAssay AID1345082 (National Center for Advancing Translational Sciences (NCATS), 2018)
The campaign covered roughly 94,000 compounds. About 4,000 (4.3%) were called active. Inconclusive results, whose numbers are uncertain, are shown with a selection of clear calls. Calls follow the shape of the dose curve; as a rule, active = well fitted inhibition curve with a large enough effect; inconclusive = small, poorly fitted or top-dose-only effect; inactive = no such curve, though single readings can be large or run the other way. A potency beside an inconclusive call is a rough fit, not a confirmed value.

test: Cytotoxic Profiling in NIH 3T3 Cell Line of Diverse Libraries Using Quantitative High-Throughput Screening; settings: NIH 3T3 viability, CellTiter-Glo ATP luminescence, 48-72 h; series mostly up to 96.7 µM; also: nearly all actives have a fitted effect of over 55% in size
Procedure, shortened: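 NIH 3T3 cells at 400 cells/well received 23 nL of compound by pintool and were incubated 48 or 72 h at 37 °C. Viability was read as ATP-coupled CellTiter-Glo luminescence.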
Potency is read from the fitted curve at half-maximal effect; tags tell the direction and shape of the fitted curve.

SMILES	Potency
CN(C)c1cccc(-c2cn(C)c(=O)n3cc(CN4CCNC(=O)C4)nc23)c1	inconclusive: 112 µM [inhibitor, single point]
O=C1Cc2c(-c3ccccc3Cl)n[nH]c2CN1CC1CCOCC1	active: 89.1 µM
CCNC(=O)O[C@@H]1CC[C@]2(C)C(CC[C@@H](O)[C@H]2CC(=O)NCc2cc(F)cc(F)c2)[C@]1(C)CO (stereo not given in full)	inconclusive: 56.2 µM [inhibitor, partial curve, poor fit]
CN1CCN(Cc2cn3c(=O)n(C)cc(-c4cccc(OC(F)(F)F)c4)c3n2)CC1	inconclusive: 100 µM [inhibitor, single point]
O=C(CCc1nc(C2CCOC2)no1)NC1CCCCCCC1 (stereo not given)	inactive
COc1ccc(S(=O)(=O)N2CCC3(CC2)CC(OCC2CC2)CCO3)cc1 (stereo not given)	inconclusive: 22.4 µM [inhibitor, partial curve, poor fit]
O=C(NCc1cccnc1)c1ccc(N2CC3CC(C2)[C@H]2CCCC(=O)N2C3)nc1 (stereo not given in full)	active: 5.01 µM
CC(C)N1C[C@@H](COCc2ccccc2)[C@H](c2ccccc2)[S+]1(=O)[O-]	inconclusive: 50.1 µM [inhibitor, partial curve, poor fit]
O=C1c2cc(N3CCOCC3)nc(-c3ccc(F)cc3)c2CN1Cc1ccccc1	inconclusive: 35.5 µM [inhibitor, full curve]
O=C(Cc1ccc2c(c1)OCO2)N[C@@H]1CCOC[C@H]1Oc1ccccn1	inactive
O=C(NCCc1ccc(Cl)cc1)c1nc2cccnc2n(C2CCCCC2)c1=O	inactive
O=C(NC1CCN(c2cc(-c3ccccc3)[nH]n2)CC1)c1cccs1	inactive
COCCn1ccc2ccc(C(=O)Nc3ccc4c(c3)C(=O)N3CCC[C@H]3C(=O)N4)cc21	inconclusive: 44.7 µM [inhibitor, partial curve, poor fit]
CN1C(=O)C(CC(=O)NCc2cccnc2-n2ccnc2)N(C)C1=O (stereo not given)	inactive
CCS(=O)(=O)N1CCC(Cc2ncc(C)n2Cc2ccccc2)C1 (stereo not given)	inactive
COc1ccc(NC(=O)c2ccc3c(c2)N(C(=O)c2ccc(F)cc2)CC3)cc1OC	inconclusive: 50.1 µM [inhibitor, partial curve, poor fit]
CN1c2cccnc2CN(Cc2ccc(C(F)(F)F)cc2)CC[C@H]1CO	inconclusive: 63.1 µM [inhibitor, full curve, poor fit]
Cc1cc2ncc(C(=O)NCCc3ccccn3)cn2n1	inactive
O=C(c1csnn1)N1CCc2onc(-c3cccc(F)c3)c2C1	inconclusive: 39.8 µM [inhibitor, partial curve, poor fit]
Cc1ccc(-c2cc(C(=O)NCCN3CCN(C)CC3)n(C)c2)cc1	inconclusive: 70.8 µM [inhibitor, single point]
COC[C@@H]1CN(Cc2ccc(OC)c(OC)c2)C[C@H]1c1ccncc1	inactive
COc1ccc(-c2nc3c(c(-c4ccccc4)n2)CN(C(=O)C(C)(C)C)CC3)cc1	inconclusive: 70.8 µM [inhibitor, single point]

SMILES	Potency
COCCc1noc(-c2ccccc2OC2CN(C(=O)Cc3cccc(C)c3)C2)n1	inactive
COc1cccc(-c2cc3c(=O)n(CCNC(=O)c4cc5ccccc5[nH]4)ccn3n2)c1	inconclusive: 44.7 µM [inhibitor, partial curve, poor fit]
O=C(c1cc2c(s1)CN(C1CCCC1)C2)N1CCCCCC1	inconclusive: 70.8 µM [inhibitor, single point]
Cc1ccc(OCCC2CCN(C(=O)c3ccoc3)C2)cc1 (stereo not given)	inconclusive: 31.6 µM [inhibitor, full curve]
CN(C)c1ccc(C(=O)NC[C@H]2O[C@@H](CC(=O)N3CCN(c4ccccc4)CC3)[C@H](O)[C@@H]2O)cc1	inconclusive: 89.1 µM [inhibitor, partial curve, poor fit]
CN(C(=O)C1CCCC1)C1CCc2ccccc2C1 (stereo not given)	inconclusive: 79.4 µM [inhibitor, partial curve]
Cc1cccc(S(=O)(=O)N2CCC(n3cnnc3C(C)C)CC2)c1	inactive
CCOc1cc(=O)n2c(c1C(=O)Nc1cc(OC)c(OC)c(OC)c1)CCCC2	inconclusive: 70.8 µM [inhibitor, partial curve, poor fit]
O=[S+]([O-])(NC1CCN(c2ccc3nnc(C4CC4)n3n2)C1)c1cccc(C(F)(F)F)c1 (stereo not given)	inconclusive: 28.2 µM [inhibitor, partial curve]
CCn1cc(CN2CCC(N3C(=O)C4(CCCCC4)C3c3ccccc3)CC2)cn1 (stereo not given)	inactive
CN1CCN(c2ccc(-c3cn(C)c(=O)n4cc(CNc5ccccc5)nc34)cn2)CC1	active: 50.1 µM
CC1=C(C(=O)Nc2ccccc2)C(c2cccc(C)c2)N2C(CC(=O)NC(C)C)=CSC2=N1 (stereo not given)	inconclusive: 70.8 µM [inhibitor, single point]
COc1ccc(-c2nnc3ccc(N4CCN(C(C)=O)CC4)nn23)nc1	inconclusive: 79.4 µM [inhibitor, partial curve, poor fit]
CC(=O)N1CCN(C(=O)c2cc(-c3ccsc3)nc3c2cnn3C)CC1	inactive
CC(C)c1noc(-c2nc(-c3ccc4c(c3)OCO4)no2)n1	inactive
CCN(CC)c1ccc(CNC(=O)c2ccc3c(c2)n(C)c(=O)c2ccnn23)cc1	inconclusive: 50.1 µM [inhibitor, single point]
CCCCNC(=O)c1ccc2c(c1)N(C(=O)c1ccc(OC)cc1)CC2	inconclusive: 44.7 µM [inhibitor, partial curve, poor fit]
CC(C)(C)N1CC(c2nc(-c3ccc4nc[nH]c4c3)no2)CC1=O (stereo not given)	inconclusive: 79.4 µM [inhibitor, partial curve, poor fit]
O=C(CNC(=O)c1cccc(-c2ccsc2)c1)NCc1cccs1	inconclusive: 44.7 µM [inhibitor, partial curve, poor fit]
COc1ccc2[nH]c3c(c2c1)CCNC31CCN(C(=O)c2cnc(C)cn2)CC1	inactive
CCCC(O)CN1CCC(=O)N(CC)Cc2cc(F)ccc21 (stereo not given)	inactive
c1cc(Cn2cncn2)cc(-n2ccnc2-c2cc3n(n2)CCCNC3)c1	inactive

SMILES	Potency
COCCCN1CCc2c(n(Cc3ccccc3)n(-c3ccccc3)c2=O)C1	inconclusive: 11.2 µM [inhibitor, partial curve, poor fit]
CC(C)CN1C(=O)c2cccn2CC1C(=O)NCCCN1CCc2ccccc2C1 (stereo not given)	inactive
COCC1(CNC(=O)c2cc(C)on2)C[C@@H](O)[C@@H](O)C1 (stereo not given in full)	inactive
Cc1ccc(-c2noc([C@@H]3CCCN3C(=O)Cc3cccc(C)c3)n2)cc1	inconclusive: 50.1 µM [inhibitor, partial curve, poor fit]
Cc1ccccc1-c1cnc2[nH]cc(CC(=O)NCc3cccnc3)c2c1	inconclusive: 31.6 µM [inhibitor, partial curve, poor fit]
CCOC(=O)[C@@H]1CN(C(=O)NC2CCCC2)[C@H]2c3cccc(F)c3O[C@@H]12	inconclusive: 31.6 µM [inhibitor, partial curve, poor fit]
CC(C)Cn1c(=O)c(C(=O)NCCc2ccc(F)cc2)nc2cccnc21	inconclusive: 70.8 µM [inhibitor, partial curve, poor fit]
Cc1cc(-c2cnc(Nc3ccc(F)cc3)c3c2CCO3)ccn1	inconclusive: 50.1 µM [inhibitor, partial curve, poor fit]
COCC(=O)N1CCCC(C(=O)N2CCCC(c3nc4ncccc4[nH]3)C2)C1 (stereo not given)	inactive
COc1ccc2c(c1)C(COCc1ccccc1)CC(C)(C)CO2 (stereo not given)	inconclusive: 50.1 µM [inhibitor, partial curve, poor fit]
COc1ccc(CN2C[C@H]3CN(Cc4ccc(OC(F)(F)F)cc4)CCN3C2=O)cc1	inconclusive: 44.7 µM [inhibitor, partial curve, poor fit]
COc1ccc(-c2nc3cnccn3c2NCCC(=O)O)cc1	inactive
Cc1ccc(S(=O)(=O)N2CCC(n3cnnc3-c3ccccc3)CC2)c(C)c1	inconclusive: 50.1 µM [inhibitor, partial curve, poor fit]
COc1ccccc1-c1cccc(CN2CCC(NC(=O)Cc3ccc(F)cc3)CC2)c1	active: 31.6 µM
O=C(c1cc(C2CC2)[nH]n1)N1CCC2(CC1)NC(=O)N(c1ccc(F)cc1)N2	inconclusive: 28.2 µM [inhibitor, full curve, poor fit]
COc1ccc(CN2CCC3(COc4ccccc4C(=O)N3)C2)cc1 (stereo not given)	inconclusive: 50.1 µM [inhibitor, partial curve, poor fit]
CCc1cc(N2CCC(Oc3ccccc3OC)(C(=O)O)CC2)nc(C)n1	inconclusive: 89.1 µM [inhibitor, partial curve, poor fit]
O=S(=O)(N[C@H]1CO[C@H]2[C@@H]1OC[C@@H]2n1nnnc1-c1ccc2c(c1)OCO2)c1ccc2ccccc2c1	inconclusive: 79.4 µM [inhibitor, partial curve, poor fit]
CN(C)c1cccc(Oc2nnnn2[C@H]2CO[C@H]3[C@@H]2OC[C@@H]3NC(=O)Nc2ccc(Oc3ccccc3)cc2)c1	inconclusive: 25.1 µM [inhibitor, partial curve]
O=C1NCCCCCCN(S(=O)(=O)c2cccs2)[C@H]2CCC[C@@H]12	inactive
Cc1nc2cc(S(=O)(=O)N3CCOCC3)ccc2n1CCNC(=O)C1(C)CC1	inactive
